# Out of some 310,000 compounds screened, about 18,000 (5.8%) were called active. The inconclusive results got no clear call from the source; some entries with a clear call stand among them for comparison. The call rests on the fitted dose curve; in most records, active means well fitted inhibition curve with a large enough effect; inconclusive means small, poorly fitted or top-dose-only effect, or another doubt; inactive means no such curve, though single readings can be large or run the other way. No potency is given beside an inconclusive call; the fits are too rough.
# Test: Primary qHTS for delayed death inhibitors of the malarial parasite plastid, 48 hour incubation
# Details: P. falciparum luciferase growth in erythrocytes; series mostly up to 28.7 µM; activity change, negative = inhibition: at the top concentration
# How it was run: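 Parasite viability was followed by luminescence of a genomically integrated firefly luciferase. Cultures held 0.1% parasitemia at 2% hematocrit (final), incubated under 5% CO2 at 37 C.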
# On the % scale 0 is the no-effect control and ±100 the full control effect; potency means the concentration at half of the fitted maximal effect; tags describe the fitted curve by direction and shape.
SMILES,Potency,"activity change, negative = inhibition"
Cc1noc(C)c1COC(=O)C1CCN(S(=O)(=O)c2c(Cl)cccc2Cl)CC1,"inconclusive [inhibitor, single point]",
O=C1CN(C(=O)/C=C/c2ccc(Br)cc2)CCN1,,inactive: 15.8% [at 0.00184 µM]
CCCCn1c(SCC(=O)N2CCCC2=O)nc2cc(S(N)(=O)=O)ccc21,,inactive: -7.78%
O=C(CSc1ccccc1)NCCc1ccccc1,,inactive: 33.4%
COc1ccc(C(C#N)c2ccc(=O)[nH]n2)cc1 (stereo unspecified),,inactive: 4.01%
O=C(CN1C(=O)NC(Cc2ccccc2)C1=O)Nc1ccccc1 (stereo unspecified),,inactive: 22.6%
O=c1oc2ccccc2cc1-c1csc(Nc2nc3c(F)cccc3s2)n1,"inconclusive [inhibitor, single point]",
Cn1c(=O)[nH]c(=O)c2c1nc(Br)n2CC(O)COc1ccc(Cl)cc1 (stereo unspecified),,inactive: -4.76%
CCN1C(=O)C(CC(=O)Nc2ccc(OC)cc2)N(CCCN2CCN(c3ccc(OC)cc3)CC2)C1=S (stereo unspecified),"inconclusive [inhibitor, partial curve]",
CCOc1ccc(Br)cc1C(=O)N/N=C/c1ccccn1,active: 9.28 µM,
CC(=O)C1=C(C)N(Cc2ccccc2)C(=O)N[C@H]1CCc1ccccc1,"inconclusive [inhibitor, single point]",
COc1ccccc1/C=N/NC(=O)c1cccc(OC(F)(F)C(F)F)c1,,inactive: 1.94%
Cc1ccc(-c2csc(N=C(N)N)n2)cc1,"inconclusive [inhibitor, partial curve, poor fit]",
CC[C@@]12C(=O)N(c3cccc(C)c3)C(=O)N1[C@H](c1ccc(Br)cc1)[C@@H]1C(=O)N(C(C)(C)C)C(=O)[C@@H]12,active: 3.29 µM,
CCCc1cc(=O)[nH]c2nnc(SCC(=O)Nc3nccs3)n12,"inconclusive [inhibitor, single point]",
COc1ccc(CNC(=O)C2CCN(C(=O)c3csc(Nc4ccc(C)cc4)n3)CC2)cc1,active: 8.28 µM,
COc1ccc(S(=O)(=O)N2CCCN(CC(=O)Nc3ccc4c(c3)OCO4)CC2)cc1,"inconclusive [inhibitor, single point]",
Cn1ccnc1SCc1cc(=O)[nH]c2ccccc12,,inactive: 20.1%
COc1ccc(NS(=O)(=O)c2cn(C)cn2)c(OC)c1,,inactive: 14.7%
COc1ccccc1C(=O)Nc1ccccc1N1CCN(S(C)(=O)=O)CC1,"inconclusive [inhibitor, single point]",
COC(=O)c1cccc(N(C(=O)c2ccco2)C(C(=O)NC2CCCC2)c2ccc(N3CCOCC3)cc2)c1 (stereo unspecified),active: 10.4 µM,
CCCN(Cc1ccccc1)C(=S)Nc1ccc(OCC)cc1,,inactive: 18.7%
CC(=O)c1sc(NC(=O)COc2ccc(Cl)cc2C)nc1C,"inconclusive [inhibitor, single point]",

SMILES,Potency,"activity change, negative = inhibition"
COC(=O)c1ccc(C(=O)OC)c(NC(=S)N2CCN(c3cccc(Cl)c3)CC2)c1,,inactive: -3.27%
Cc1ccc(S(=O)(=O)N2CCN(S(=O)(=O)N3CCCCCC3)CC2)cc1,,inactive: 38.9%
COC(=O)c1sccc1NC(=O)C1CCCCC1C(=O)O (stereo unspecified),,inactive: 36.6%
COc1cccc(-n2c(SCC(=O)NC3CCCCC3)nc3n[nH]c(C)c3c2=N)c1,"inconclusive [inhibitor, partial curve, poor fit]",
COc1cc2cc(CN(Cc3nnnn3Cc3ccccc3)CC3CCCO3)c(=O)[nH]c2cc1OC (stereo unspecified),"inconclusive [inhibitor, partial curve, poor fit]",
COc1ccccc1C(=O)Nc1nnc(SCC(=O)NCc2ccco2)s1,,inactive: 215%
O=C(Nc1ccc2c(c1)OCCO2)C1CCCN1C(=O)Nc1ccccc1 (stereo unspecified),,inactive: 4.94%
CN(C)S(=O)(=O)c1ccc(NC(=O)CSc2nc3ccccc3n2-c2ccccc2)cc1,active: 5.86 µM,
COc1ccc(-c2cc(C(F)(F)F)n3nc(C(=O)N4CCN5CCCC5C4)cc3n2)cc1OC (stereo unspecified),"inconclusive [inhibitor, partial curve]",
CCC(C)Nc1c2c(nc3c(-c4ccccc4)c(C)nn13)CCC2 (stereo unspecified),"inconclusive [inhibitor, partial curve, poor fit]",
CCCOC(=O)C1C2C=CC3(CN(c4ccc(Cl)c(F)c4)C(=O)C13)O2 (stereo unspecified),"inconclusive [inhibitor, single point]",
O=C(NC1(Cc2ccccc2)CCN(Cc2ccc(-c3ccccc3)cc2)C1=O)c1ccccc1 (stereo unspecified),"inconclusive [inhibitor, single point]",
CCOc1ccc2nc(SCC(=O)NC(=O)NCc3ccco3)[nH]c2c1,"inconclusive [inhibitor, full curve, poor fit]",
COCCNC(=O)CSc1nnc(NC(=O)C2CC(=O)N(c3ccccc3OC)C2)s1 (stereo unspecified),"inconclusive [inhibitor, full curve, poor fit]",
CN1CCCC(n2nc(Cc3ccc(Cl)cc3)c3ccccc3c2=O)CC1 (stereo unspecified),"inconclusive [inhibitor, single point]",
Cc1nn(CCC#N)c(NC(=O)c2ccc(Cl)cc2Cl)c1P(=O)(Nc1ccc([N+](=O)[O-])cc1)N1CCOCC1 (stereo unspecified),active: 8.28 µM,
COc1ccc(-c2c([C@H]3[C@@H]4C=CCC[C@@]4(C)C(=O)N3Cc3ccccc3)ccc3ccccc23)cc1OC,active: 5.22 µM,
CCOC(=O)N/N=C/c1cc(C)n(-c2ccccc2)c1C,"inconclusive [inhibitor, single point]",
COC(=O)Cc1csc(NC(=O)CSc2nnc3ccccn23)n1,,inactive: -13.8%
COCCn1c(SCC(=O)N(C)c2ccccc2)nc2c([nH]c3ccccc32)c1=O,"inconclusive [inhibitor, partial curve]",
S=c1[nH]cnc2scc(-c3ccccc3)c12,"inconclusive [inhibitor, partial curve, poor fit]",
Cc1ccc(CN2CCC(c3cc(-c4ccc(Cl)cc4)n[nH]3)CC2)cc1,"inconclusive [inhibitor, single point]",
COc1ccc2nc(SC(C)C(=O)NCC(=O)Nc3ccc(F)c(F)c3F)[nH]c2c1 (stereo unspecified),"inconclusive [inhibitor, single point]",

# Reference: PubChem BioAssay AID504832 (National Center for Advancing Translational Sciences (NCATS), 2011)
